# Results: PubChem BioAssay (Tox21)
# Values joined by “and” are separate entries in the source; they are usually repeats but may differ in a detail not shown here. Equal values may be shown once. The entries are a selection whose mix differs from that of the whole data set. Records with an inconclusive call do not appear. Active and inactive are the calls of the source. Calls come from the whole dose curve; as a rule, active = well fitted curve in the direction sought with a large enough effect in the repeat runs; inconclusive = weak or mixed curves; inactive = no such curve, though single readings can be large; an effect the other way counts as inactive or inconclusive.
# Target: Aromatase (Homo sapiens) (UniProt P11511)
# Experiment: qHTS assay to identify aromatase inhibitors (AID 743083); note: nearly all actives have a fitted effect of over 55% in size
# Conditions: MCF-7 aro ERE, testosterone-driven ERE luciferase, 24 h
# Potency is the fitted concentration of half-maximal effect.
# Sequence of UniProt P11511 (P11511 whole entry, looked up): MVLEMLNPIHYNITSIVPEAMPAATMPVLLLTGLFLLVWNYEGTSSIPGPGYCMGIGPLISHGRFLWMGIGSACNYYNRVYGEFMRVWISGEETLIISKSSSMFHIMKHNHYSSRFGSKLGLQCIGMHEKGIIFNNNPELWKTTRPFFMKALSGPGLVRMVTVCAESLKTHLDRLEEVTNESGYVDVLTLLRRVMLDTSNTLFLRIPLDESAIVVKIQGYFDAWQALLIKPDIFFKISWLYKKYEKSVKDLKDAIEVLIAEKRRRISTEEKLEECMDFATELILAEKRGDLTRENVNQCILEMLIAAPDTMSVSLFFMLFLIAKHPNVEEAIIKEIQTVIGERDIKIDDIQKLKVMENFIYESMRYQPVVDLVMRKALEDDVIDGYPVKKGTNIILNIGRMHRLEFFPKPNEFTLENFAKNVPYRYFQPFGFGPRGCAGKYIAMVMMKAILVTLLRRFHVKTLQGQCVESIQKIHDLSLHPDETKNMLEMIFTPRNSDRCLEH
row,SMILES,Potency
1,Clc1ccc(COC(Cn2ccnc2)c2ccc(Cl)cc2Cl)c(Cl)c1 (centres undefined),active: 7.17 µM
2,Clc1cccc(C(c2ccc3nc[nH]c3c2)n2ccnc2)c1 (centres undefined),active: 0.422 µM
3,CC(C)(C#N)c1cc(Cn2cncn2)cc(C(C)(C)C#N)c1,active: 335 nM and active: 119 nM

# Target: Voltage-gated inwardly rectifying potassium channel KCNH2 (Homo sapiens) (UniProt Q12809)
# Experiment: Human Ether-a-go-go-Related Gene (hERG) channel small molecule antagonists: fluorescence cell-based qHTS assay (AID 1671200); note: nearly all actives have a fitted effect of over 50% in size
# Conditions: hERG-U2OS cells, FluxOR thallium flux fluorescence
# In short: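 Kinetic two-minute fluorescence traces, sampled at 1 s, were collected following thallium stimulus of U2OS cells (1000 per well) that had been cultured overnight at 37 C and loaded with FluxOR II.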
# Sequence of UniProt Q12809 (Q12809 whole entry, looked up): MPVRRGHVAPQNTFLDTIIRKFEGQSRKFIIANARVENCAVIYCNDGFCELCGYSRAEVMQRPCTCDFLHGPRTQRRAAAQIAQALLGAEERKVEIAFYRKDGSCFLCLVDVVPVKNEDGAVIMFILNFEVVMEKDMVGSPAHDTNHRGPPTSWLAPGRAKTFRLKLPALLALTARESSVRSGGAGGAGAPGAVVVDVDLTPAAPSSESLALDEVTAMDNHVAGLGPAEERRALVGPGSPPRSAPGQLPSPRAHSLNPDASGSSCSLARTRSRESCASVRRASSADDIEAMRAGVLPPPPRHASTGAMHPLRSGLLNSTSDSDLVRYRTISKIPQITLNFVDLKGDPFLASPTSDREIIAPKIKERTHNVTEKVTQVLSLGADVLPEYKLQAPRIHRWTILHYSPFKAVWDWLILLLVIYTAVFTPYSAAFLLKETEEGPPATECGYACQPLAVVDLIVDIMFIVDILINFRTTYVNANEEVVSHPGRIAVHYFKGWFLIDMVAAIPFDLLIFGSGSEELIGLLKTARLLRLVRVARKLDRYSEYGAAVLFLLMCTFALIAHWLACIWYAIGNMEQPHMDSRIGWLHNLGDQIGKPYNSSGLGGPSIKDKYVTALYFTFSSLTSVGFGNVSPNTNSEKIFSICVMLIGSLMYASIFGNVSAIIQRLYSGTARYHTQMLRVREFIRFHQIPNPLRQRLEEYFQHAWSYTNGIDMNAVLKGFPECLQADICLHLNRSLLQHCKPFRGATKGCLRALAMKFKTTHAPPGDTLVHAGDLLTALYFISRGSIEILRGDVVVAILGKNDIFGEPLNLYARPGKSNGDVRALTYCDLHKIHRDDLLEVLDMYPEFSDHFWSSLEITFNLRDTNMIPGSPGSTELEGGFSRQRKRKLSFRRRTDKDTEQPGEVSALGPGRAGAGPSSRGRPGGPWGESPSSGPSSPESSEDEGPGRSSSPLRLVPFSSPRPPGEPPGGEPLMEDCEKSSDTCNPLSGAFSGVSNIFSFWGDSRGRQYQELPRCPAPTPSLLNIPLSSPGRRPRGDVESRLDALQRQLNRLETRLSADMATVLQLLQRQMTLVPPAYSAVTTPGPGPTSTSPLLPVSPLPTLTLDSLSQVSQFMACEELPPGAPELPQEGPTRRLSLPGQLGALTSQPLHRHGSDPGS
row,SMILES,Potency
1,C(=C\c1ccccc1)/CN1CCN(C(c2ccccc2)c2ccccc2)CC1,active: 0.756 µM
2,CCN(CC)CCOc1ccc(/C(=C(\Cl)c2ccccc2)c2ccccc2)cc1,active: 3.54 µM and active: 2.39 µM
3,Cc1ccccc1C(OCCN(C)C)c1ccccc1 (centres undefined),active: 21.9 µM and active: 24.5 µM and active: 16.9 µM
4,CCN(CC)CCOC(=O)C1(C2CCCCC2)CCCCC1,active: 9.52 µM
5,CN1CCC(=C2c3ccccc3C=Cc3ccccc32)CC1,active: 10.7 µM
6,O=c1n(CCCN2CCN(c3cccc(Cl)c3)CC2)nc2ccccn12,active: 12.3 µM and active: 8.49 µM
